Assay [1] concerns PC3 (human prostate carcinoma cell line) cells. As to the kind of experiment: cells. The conditions noted are these: read-out: EC50 PC3.
Assay [2] concerns BT474. The assay is described as follows: cells. The conditions noted are these: Homo sapiens, BT-474, read-out: EC50 BT474.

The structures appear in SMILES notation. pEC50: −log10 of the molar value.

Turning to `CCc1ncnc(-c2ccc(C(=O)NC[C@H]3CCCN3CC)c(F)c2)c1C#Cc1ccc(N)nc1` [Example D-200], the negative-log EC50 (pEC50) in assay [1] is 6.35.
For `CCc1ncnc(-c2ccc(C(=O)NC3CCN(CCOC)CC3)c(F)c2)c1C#Cc1ccc(N)nc1` [Example D-201], the negative-log EC50 (pEC50) in assay [1] was 7.05.
Consider `CCc1ncnc(-c2ccc(C(=O)NC3CC(C)(C)N(C)C(C)(C)C3)c(F)c2)c1C#Cc1ccc(N)nc1` [Example D-202], for which the pEC50 in assay [1] is 6.70.
The same measure, in the same setting: the value for `CCc1ncnc(-c2ccc(C(=O)N3CC[C@H](O)C3)c(F)c2)c1C#Cc1ccc(N)nc1` [Example D-203] was 7.24; that for `CCc1ncnc(-c2ccc(C(=O)N3CC[C@@H](O)C3)c(F)c2)c1C#Cc1ccc(N)nc1` [Example D-204] was 7.28.
With `CCc1ncnc(-c2ccc(C(=O)NC3CCCN(C4CCN(C)CC4)C3)c(F)c2)c1C#Cc1ccc(N)nc1` [Example D-205], the pEC50 in assay [1] was 6.51.
On the same count and under the same terms, the value for `CCc1ncnc(-c2ccc(C(=O)NC3CC(N4CCCCC4)C3)c(F)c2)c1C#Cc1ccc(N)nc1` [Example D-207] was 7.15.
Consider `CCc1ncnc(-c2ccc(C(=O)NC3CC(N4CCC(N5CCCC5)CC4)C3)c(F)c2)c1C#Cc1ccc(N)nc1` [Example D-208], for which the pEC50 in assay [1] was 6.93.
On the same count and under the same terms, the figure for `CCc1ncnc(-c2ccc(C(=O)NC3CCN(C4CCN(C)CC4)C3)c(F)c2)c1C#Cc1ccc(N)nc1` [Example D-210] is 6.76; for `CCc1ncnc(-c2ccc(C(=O)NCCN3CCCC3=O)c(F)c2)c1C#Cc1ccc(N)nc1` [Example D-211] it is 6.85; for `CCc1ncnc(-c2ccc(C(=O)NC3CCS(=O)(=O)C3)c(F)c2)c1C#Cc1ccc(N)nc1` [Example D-212] it is 7.12.
As for `CCc1ncnc(-c2ccc(C(=O)NC3CC(C)(C)NC(C)(C)C3)c(F)c2)c1C#Cc1ccc(N)nc1` [Example D-213], the pEC50 in assay [1] is 6.88.
As for `CCc1ncnc(-c2ccc(C(=O)NCC3(C)COC3)c(F)c2)c1C#Cc1ccc(N)nc1` [Example D-214], in assay [1], the pEC50 was 7.35.
Turning to `CCc1ncnc(-c2ccc(C(=O)N3CCC(N(C)C)C3)c(F)c2)c1C#Cc1ccc(N)nc1` [Example D-215], in assay [1], the pEC50 was 7.19.
Consider `CCc1ncnc(-c2ccc(C(=O)N(C)C3CCS(=O)(=O)C3)c(F)c2)c1C#Cc1ccc(N)nc1` [Example D-216], for which the negative-log EC50 (pEC50) in assay [1] is 7.38.
Take `CCc1ncnc(-c2ccc(C(=O)NCCN3CCOCC3)c(F)c2)c1C#Cc1ccc(N)nc1` [Example D-217]: in assay [1], the pEC50 is 7.01.
Same read-out and setting: the value for `CCc1ncnc(-c2ccc(C(=O)N3CCCO3)c(F)c2)c1C#Cc1ccc(N)nc1` [Example D-218] was 7.24.
The same measure, in the same setting: the value for `CCc1ncnc(-c2ccc(C(=O)N3CCCCO3)c(F)c2)c1C#Cc1ccc(N)nc1` [Example D-219] was 7.24; that for `CCc1ncnc(-c2ccc(C(=O)N3CC(O)CO3)c(F)c2)c1C#Cc1ccc(N)nc1` [Example D-220] was 7.19.
Regarding `CCc1ncnc(-c2ccc(C(=O)N3CCCO3)cc2)c1C#Cc1ccc(N)nc1` [Example D-222], the negative logarithm of the EC50 (pEC50) in assay [1] is 7.20.
For `CCc1ncnc(-c2ccc(C(=O)N3CCCCO3)cc2)c1C#Cc1ccc(N)nc1` [Example D-223], the pEC50 in assay [1] was 7.07.
As to `CCc1ncnc(-c2ccc(C(=O)N3CC(O)CO3)cc2)c1C#Cc1ccc(N)nc1` [Example D-224], the pEC50 in assay [1] is 6.97.
Same read-out and setting: the figure for `CCc1ncnc(-c2ccc(C(=O)N(C)OC)cc2)c1C#Cc1ccc(N)nc1` [Example D-225] is 7.18; for `Cc1ncnc(-c2ccc(C(=O)N3CCCO3)c(F)c2)c1C#Cc1ccc(N)nc1` [Example D-226] it is 7.31; for `Cc1ncnc(-c2ccc(C(=O)N3CCCCO3)c(F)c2)c1C#Cc1ccc(N)nc1` [Example D-227] it is 7.00.
`Cc1ncnc(-c2ccc(C(=O)N3CC(O)CO3)c(F)c2)c1C#Cc1ccc(N)nc1` [Example D-228]: in assay [1], the negative-log EC50 (pEC50) was 7.09.
Turning to `CON(C)C(=O)c1ccc(-c2ncnc(C)c2C#Cc2ccc(N)nc2)cc1F` [Example D-229], the pEC50 in assay [1] is 7.19.
On the same count and under the same terms, the value for `Cc1ncnc(-c2ccc(C(=O)N3CCCO3)c(Cl)c2)c1C#Cc1ccc(N)nc1` [Example D-230] was 7.21.
As to `Cc1ncnc(-c2ccc(C(=O)N3CCCCO3)c(Cl)c2)c1C#Cc1ccc(N)nc1` [Example D-231], the pEC50 in assay [1] is 7.11.
As to `Cc1ncnc(-c2ccc(C(=O)N3CC(O)CO3)c(Cl)c2)c1C#Cc1ccc(N)nc1` [Example D-232], the pEC50 in assay [1] was 7.00.
Turning to `CCc1ncnc(-c2ccc(C(=O)N3CCC(N4CCOCC4)C3)c(F)c2)c1C#Cc1ccc(N)nc1` [Example D-234], in assay [1], the pEC50 was 7.14.
Regarding `CCc1ncnc(-c2ccc(C(=O)N3CCC(N4CCCC4)C3)c(F)c2)c1C#Cc1ccc(N)nc1` [Example D-235], in assay [1], the pEC50 was 7.11.
`CCc1ncnc(-c2ccc(C(=O)N3CC[C@@H](N(C)C)C3)c(F)c2)c1C#Cc1ccc(N)nc1` [Example D-236]: the negative logarithm of the EC50 (pEC50) in assay [1] is 7.31.
Same read-out and setting: the value for `CCc1ncnc(-c2ccc(C(=O)N3CC[C@H](N(C)C)C3)c(F)c2)c1C#Cc1ccc(N)nc1` [Example D-237] was 7.11; that for `CCc1ncnc(-c2ccc(C(=O)N3CCC(N(CC)CC)C3)c(F)c2)c1C#Cc1ccc(N)nc1` [Example D-238] was 7.15.
On the same count and under the same terms, the figure for `CCc1ncnc(-c2ccc(C(=O)N3CCOCC3)c(F)c2)c1C#Cc1ccc(N)nc1` [Example D-239] is 7.28.
Take `CCc1ncnc(-c2ccc(C(=O)N3CCN(C)CC3)nc2)c1C#Cc1ccc(N)nc1` [Example D-240]: the pEC50 in assay [1] was 6.61.
Regarding `CCc1ncnc(-c2ccc(C(=O)N3CCN4CCCC[C@H]4C3)c(Cl)c2)c1C#Cc1ccc(N)nc1` [Example E-143], the pEC50 in assay [2] was 7.65.
The same measure, in the same setting: the figure for `CCc1ncnc(-c2ccc(C(=O)N3CCN4CCCC[C@H]4C3)c(F)c2)c1C#Cc1ccc(N)nc1` [Example E-144] is 7.75; for `CCc1ncnc(-c2ccc(C(=O)N3CCN4CCCC[C@@H]4C3)c(F)c2)c1C#Cc1ccc(N)nc1` [Example E-145] it is 7.32; for `CCc1ncnc(-c2cc(F)c(C(=O)N3CCN(CCCS(C)(=O)=O)CC3)c(F)c2)c1C#Cc1ccc(N)nc1` [Example E-146] it is 7.92.
Still for that read-out and setting: the figure for `CCc1ncnc(-c2cc(F)c(C(=O)N3CCn4ccnc4C3)c(F)c2)c1C#Cc1ccc(N)nc1` [Example E-147] is 7.86; for `CCc1ncnc(-c2cc(F)c(C(=O)N3CCn4cnnc4C3)c(F)c2)c1C#Cc1ccc(N)nc1` [Example E-148] it is 7.47.
In the case of `CCc1ncnc(-c2cc(F)c(C(=O)N3CCn4c(C)cnc4C3)c(F)c2)c1C#Cc1ccc(N)nc1` [Example E-149], in assay [2], the negative-log EC50 (pEC50) is 7.48.
On to `CCc1ncnc(-c2cc(F)c(C(=O)N3CCC4(CC3)COC4)c(F)c2)c1C#Cc1ccc(N)nc1` [Example E-150], for which the pEC50 in assay [2] is 7.69.
For `CCc1ncnc(-c2cc(F)c(C(=O)N3CCN(CCNS(C)(=O)=O)CC3)c(F)c2)c1C#Cc1ccc(N)nc1` [Example E-152], in assay [2], the pEC50 is 7.75.
`CCc1ncnc(-c2cc(F)c(C(=O)N3CCn4ccnc4C3)c(Cl)c2)c1C#Cc1ccc(N)nc1` [Example E-155]: the negative-log EC50 (pEC50) in assay [2] was 7.62.
Same read-out and setting: the figure for `CCc1ncnc(-c2cc(F)c(C(=O)N3CCn4cnnc4C3)c(Cl)c2)c1C#Cc1ccc(N)nc1` [Example E-156] is 7.92; for `CCc1ncnc(-c2cc(F)c(C(=O)N3CCn4c(C)cnc4C3)c(Cl)c2)c1C#Cc1ccc(N)nc1` [Example E-157] it is 7.74; for `CCc1ncnc(-c2cc(F)c(C(=O)N3CCC4(CC3)COC4)c(Cl)c2)c1C#Cc1ccc(N)nc1` [Example E-158] it is 7.65.
The same measure, in the same setting: the value for `CCc1ncnc(-c2cc(F)c(C(=O)N3CCN(CCNS(C)(=O)=O)CC3)c(Cl)c2)c1C#Cc1ccc(N)nc1` [Example E-159] was 7.71; that for `CCc1ncnc(-c2cc(F)c(C(=O)N3CCN(C4CCC4)CC3)c(Cl)c2)c1C#Cc1ccc(N)nc1` [Example E-160] was 6.94.
On to `CCc1ncnc(-c2cc(F)c(C(=O)N3CCC4(CC3)CNC4)c(F)c2)c1C#Cc1ccc(N)nc1` [Example E-161], for which the negative-log EC50 (pEC50) in assay [2] is 6.63.
The same measure, in the same setting: the figure for `CCc1ncnc(-c2cc(F)c(C(=O)N3CCC4(CC3)CNC4)c(Cl)c2)c1C#Cc1ccc(N)nc1` [Example E-162] is 6.68; for `C#CCN1CCN(C(=O)c2ccc(-c3ncnc(CC)c3C#Cc3ccc(N)nc3)cc2F)CC1` [Example E-165] it is 7.73.
On to `CCc1ncnc(-c2ccc(C(=O)N3CCC(F)(F)CC3)c(F)c2)c1C#Cc1ccc(N)nc1` [Example E-166], for which the pEC50 in assay [2] is 7.54.
The same measure, in the same setting: the figure for `CCc1ncnc(-c2cc(F)c(C(=O)N3CCn4c(COC)nnc4C3)c(F)c2)c1C#Cc1ccc(N)nc1` [Example E-170] is 7.59; for `CCc1ncnc(-c2cc(F)c(C(=O)N3CCC(F)(F)CC3)c(F)c2)c1C#Cc1ccc(N)nc1` [Example E-173] it is 7.40.
On the same count and under the same terms, the figure for `CCc1ncnc(-c2cc(F)c(C(=O)NCCN3CCNCC3)c(F)c2)c1C#Cc1ccc(N)nc1` [Example E-174] is 6.85.
Regarding `CCc1ncnc(-c2cc(F)c(C(=O)NCC3CCNCC3)c(F)c2)c1C#Cc1ccc(N)nc1` [Example E-175], in assay [2], the pEC50 was 6.24.
Still for that read-out and setting: the value for `CCc1ncnc(-c2ccc(C(=O)N3CCC(C(C)(C)O)CC3)c(F)c2)c1C#Cc1ccc(NC)nc1` [Example E-177] was 7.24; that for `CCc1ncnc(-c2ccc(C(=O)N3CCC(N4CCOCC4)CC3)c(F)c2)c1C#Cc1ccc(NC)nc1` [Example E-178] was 7.33; that for `CCc1ncnc(-c2ccc(C(=O)N3CCN(C4CCOCC4)CC3)c(F)c2)c1C#Cc1ccc(NC)nc1` [Example E-179] was 7.54.
Still for that read-out and setting: the value for `CCc1ncnc(-c2ccc(C(=O)N3CC[C@@H](N(C)C)C3)c(F)c2)c1C#Cc1ccc(NC)nc1` [Example E-180] was 7.17.
The same measure, in the same setting: the value for `CCc1ncnc(-c2ccc(C(=O)N3CC[C@H](N(C)C)C3)c(F)c2)c1C#Cc1ccc(NC)nc1` [Example E-181] was 7.03.
Take `CCc1ncnc(-c2ccc(C(=O)N3CCN(C)CC3)c(F)c2)c1C#Cc1ccc(NC)nc1` [Example E-182]: the pEC50 in assay [2] is 7.26.

By pEC50 is commonly meant the EC50 on a negative log10 scale, so that one unit is a factor of ten.

These data come from patent US8633183B2 (priority 2010, dated 2014).
